# Source: the supplement of paper PMC10126150
# Values marked as one replicate rest on one cluster of the flow cell; about a third of the high ones do not repeat.
# System: ATP
# Assay: switch fluorescence ratio, 500 uM ATP over buffer (Cy3 cluster intensity, sum of 5 cycles each) (fold (ratio)); higher = stronger signal-on switching upon ATP binding; sequences stand for … in TCGTCGGCAGCGTCAGATGTGTATAAGAGACAGTTTTTTTTTTTTTTTTTTTTTTTTT…TC
# Details: aptamer strand: ATP DNA aptamer (quencher-CACCTGGGGGAGTATTGCGGAGGAAGG + anchor), 100 nM annealed; ATP concentration: 500 uM; one replicate
# Procedure, shortened: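 Clusters carrying Cy3-labelled switching strands on a modified Illumina MiSeq flow-cell were annealed to 100 nM quencher-labelled ATP aptamer and imaged in selection buffer. They were imaged again after 15 min with 500 uM ATP at 22 °C, over five buffer/ATP cycles with NaOH stripping and re-annealing in between. For each cluster, the fluorescence ratio is the summed Cy3 intensity of the target cycles divided by that of the buffer cycles, averaged per switch-domain sequence. Clusters outside 100-1000 RFU were left out.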
# 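Note: ATP exposure 15 min at 22 °C before imaging.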
row,Sequence,switch fluorescence ratio
1,AACTTGAACT,1
2,CTTCAGAAAG,0.98
3,TGCGAAGGTG,1.32
4,AAGGCAAATG,1.04
5,TTTAAGTGCT,0.96
6,GGGACATGTT,1.02
7,GATTCTAGCG,0.989
8,TGTGACTACT,1.02
9,AAGCAACGTG,1.05
10,ACCAATGGAA,1.01
11,GATACACGAA,1.04
12,CGAAGACGC,1.08
13,AAAGCTAAAT,1.01
14,GCCTTTTGAC,1.05
15,CAGCGACTTG,0.936
16,TTGGACTCAT,0.999
17,ACAGCTCTTC,0.968
18,TTGGTGTAA,1.01
19,TAACTGTATC,1.17
20,TCTCGCAGG,1.27
21,ATCAGAGCAG,1.04
22,CGGAACGCAA,5.07
23,ATGCTATTAT,0.987
24,TCCTTAACGG,1.01
25,ACTCCTGAAC,2.04
26,GTAAAAACCT,1.03

row,Sequence,switch fluorescence ratio
1,TTTGGGCGCG,1.06
2,CCTTACGTCC,1.26
3,TAAATAAAGG,1.03
4,TTACGTCAAT,1.52
5,CAGATTCAAT,1.02
6,TTCTCTCTGC,1.08
7,GTAAGCATTC,1.6
8,AATCACGTA,1.26
9,CCCACGGGGC,1.16
10,CGGTCTTCTA,0.977
11,GCGTAGTCTG,0.938
12,GCGTTCCTC,1.69
13,AAGGAGCGTG,0.997
14,TTGTGGAACT,0.985
15,GCGTACAAT,0.993
16,ATGCTTGCGG,0.951
17,GCGTCGAGGT,0.986
18,CGGAACAGGG,1
19,GCTAGGCATA,1.04
20,TAGGGCGCCC,0.968
21,CAGCTGCGAA,1.1
22,CCCAGCGCTG,0.992
23,ACTATGTATC,0.995
24,ATTAGAAGTA,0.971
25,GACAATATGG,0.956
26,CATCTTCGGA,1

row,Sequence,switch fluorescence ratio
1,TATCGACAGC,1.04
2,GCGGTAG,0.99
3,AGGTGTGAGT,0.997
4,AGGCCGTCTT,0.949
5,AGCACGACTG,0.987
6,TCTCGACTTA,1.01
7,TAGGGTGCCC,0.968
8,TGCAGTGTAT,1
9,ATGTTTGTT,1.01
10,AATTAGACTC,1.01
11,TAACTTATGA,1.03
12,TTATATACCG,0.977
13,GACCGCTTTG,1.05
14,GTACGACGTT,1.04
15,AGAGTAAAAG,0.992
16,GTTACTAAGC,1.01
17,ATGCTACTGA,1.01
18,GATATAAAGG,0.991
19,ATTCAATTAT,1.03
20,CTTGATTTCC,1.07
21,AGTTCGTAT,1.03
22,TGATTTACCG,1.08
23,GATTGGCCTT,1.02
24,GCTGGGTG,1.14
25,GTATTATTCG,0.978
26,TGGGCTGCGA,1.03

row,Sequence,switch fluorescence ratio
1,GTGGTGACTG,0.999
2,AGACGGGAGC,1.01
3,TGTCATTATC,1.01
4,TGTAGTATCT,1.01
5,GTGGTGGGT,1.01
6,ACGCTAGGGT,1.05
7,ACAAACGAGG,1.3
8,AATCAGACCG,1.04
9,ACTTCTCCGG,2.58
10,AGAGGTATTC,1.01
11,TCCAGCGACG,1.03
12,CAGTCTTGGG,1
13,CTCGGTCAGA,1.03
14,TGCCCCCGCT,1.11
15,ATTTCTATGC,1.04
16,GTAGTGGGTG,1
17,GATAGTCGAT,0.983
18,AGACATGTAC,1.15
19,TGGTGTTAAC,0.939
20,CTGGCGCTCA,1.03
21,ACGAGAGA,1.05
22,GAAGCGGACG,0.996
23,GAATACGTTG,1.07
24,CTCGCTACAT,1.25
25,GAAAGTCATT,0.979
26,TGCCTCTGGG,0.96

row,Sequence,switch fluorescence ratio
1,CAATTTACGA,1
2,CTGCAGTTTG,3.1
3,GAGGTCCGTG,1.08
4,CCCCTGGGTG,1.23
5,ATCAATGTGG,0.937
6,GCTCTATTGC,0.993
7,ACGCTGGCCG,1.02
8,ACACTCGAAA,1.03
9,TCGTTGTTG,1.05
10,CGTCTGGCTT,1.14
11,CCAGACCGGC,1.06
12,CCTTGCTCAA,2.02
13,TAAATATTAT,0.984
14,TCAACGCTGT,1.08
15,TTACTTGTCA,0.977
16,GTACTCGCTT,0.973
17,AATACCTTAC,2.82
18,TCTTTGCGAG,1.01
19,ATTAGCCTAC,1.1
20,AAATGGCGGC,0.935
21,TCGCCAGACA,1.01
22,AAGTCAGGTG,2.32
23,AGACTCTTAA,1.01
24,TATTCGCACG,1.03
25,CGGACCGATA,1
26,ACCATTTGCT,0.996

row,Sequence,switch fluorescence ratio
1,TACTCCTGTT,1.03
2,GGACAGGGA,1.06
3,CGTCTAGGCA,1.08
4,GGGCGGATCT,0.972
5,CGTTTGCTTG,1.04
6,ATTTTGTGTC,0.967
7,AGGGTAAGGG,0.991
8,GTGCCCTGGA,1.02
9,CTTAAGTGT,1
10,CGAGGACGCC,1.65
11,CGGGGCCTAA,1
12,TGTGGCGAGT,1.17
13,GAACTGGCTG,1.03
14,AGATCATACT,0.994
15,CGTATCCAGG,1.2
16,CTAATCACAA,1.03
17,TTGCATAGAA,0.997
18,TTAAGCGGTG,1
19,TACAATTACA,1.06
20,TAGCTCTTGC,1.01
21,GAGAACTGCG,1.01
22,TGCTTCAAAC,2.47
23,CGAATCTTTA,0.948
